From ChEMBL document CHEMBL4888484, “Replenishing the malaria drug discovery pipeline: Screening and hit evaluation of the MMV Hit Generation Library 1 (HGL1) against asexual blood stage Plasmodium falciparum ,using a nano luciferase reporter read-out” (2022)
Hit rate of the full screen: of about 150,000 compounds, about 540 (0.36%) showed an effect of 50% or more. Some of the results follow.

The compounds below were run on Plasmodium falciparum (assay: Primary screen in NF54 nanoGlo assay, in single point, at 2uM, 72h; a lower Z score goes with more inhibition). Conditions: timepoint 72 hour.
Format: functional, Erythrocyte

Row | SMILES | % Inhibition | Z score
1 | CCC(CC)NC(=O)[C@H]1CC(=O)N(CCc2c[nH]c3ccc(C)cc23)C1 | -11% | 2.01
2 | CNC(=O)c1cc(Cl)cc(F)c1N | -6% | 1.14
3 | O=C(CCCc1ccccc1)[C@H]1CCCNC1 | 5% | -0.73
4 | CN1CCC(N(CCc2ccccc2)S(=O)(=O)c2cnn(C)c2)CC1 | -4% | 0.54
5 | CCN(Cc1nc(C)no1)C(=O)N[C@H]1CC(=O)N(c2ccc(Cl)cc2)C1 | -13% | 2.51
6 | Cc1cccc(C(=O)Nc2ccccc2C(=O)OCc2ccc(S(=O)(=O)c3ccccc3)cc2)c1 | -3% | 0.34
7 | CN(C)C(=O)N1CC[C@@]2(O)CCN(Cc3ccc(C4CCCC4)s3)C[C@H]2C1 | -11% | 1.22
8 | Cc1cc(-n2nc(C)cc2NS(=O)(=O)c2cccc(C(C)C)c2)nc(C)n1 | 29% | -2.93
9 | CNC(=O)c1cc2cc(N3C(=O)N[C@H](C)C3=O)ccc2[nH]1 | 2% | -0.47
10 | CC1CC(NC(=O)c2ccc(Oc3ccccc3)cc2)CC(C)(C)C1 (stereo unspecified) | -9% | 1.23
11 | COc1ccc(Cl)cc1NC(=O)[C@@H](NC(C)=O)C(C)C | 11% | -1.01
12 | O=C(CC(F)(F)F)N1CCC[C@H](Oc2ncccn2)C1 | 14% | -1.95
13 | CN(C)Cc1ccc(CN(C)Cc2c[nH]cn2)cc1 | 5% | -0.83
14 | O=C(NCc1ccc(Cl)cc1)C(=O)Nc1nnc(C2CC2)s1 | -10% | 0.9
15 | COc1ccc(CNc2nc(C3CCCC3)nc3c2CCOCC3)cc1 | -9% | 0.89
16 | FC1(CNc2ccc3c(c2)CCOC3)CC1 | -13% | 2.46
17 | CCn1nnc(C)c1C(=O)N1CCn2c(cc3ccc(Cl)cc32)C1 | 2% | -0.16
18 | N#Cc1cc2n(n1)CCN(C[C@]1(O)CCCN(CCc3ccccc3)C1=O)C2 | 3% | -0.65
19 | COc1ccc(C[C@H](CO)CNC(=O)Nc2nc(C)c(C)s2)cc1O | -6% | 1.23
20 | CC(=O)NC1(c2noc(CCC(=O)NC(C)(C)C)n2)CCCCCC1 | -34% | 4.03
21 | N#Cc1cc(NC[C@H]2C[C@@H](O)C2)ccc1F | 14% | -2

Row | SMILES | % Inhibition | Z score
22 | COc1ccc(C[C@@]2(CCC(=O)N3CCN(c4cc(Cl)ccc4C)CC3)CCC(=O)N2)c(F)c1 | 6% | -0.72
23 | CN1CCC(NS(=O)(=O)CC2CCCCC2)CC1 | 4% | -0.52
24 | Cc1ccc2c(c1)OC[C@H](CC(=O)NC1CCCCC1)N2Cc1ccccc1 | -9% | 1.28
25 | Cc1cccc(O[C@H]2COCCN(C(=O)N3CCOCC3)C2)n1 | 25% | -2.81
26 | Cc1cc(C)c2c(CC(=O)N3C[C@@H](CN(C)CCO)[C@@H](CO)C3)coc2c1C | -1% | 0.07
27 | CC[C@H](O)Cn1ncnc1-c1ccc(-n2cnnc2)cc1 | 7% | -1.06
28 | O=C(CN1CCCC1=O)N[C@H]1COCC[C@@H]1OCc1ccccn1 | -11% | 1.99
29 | CCOC(=O)c1cn([C@@H](CC)Cn2ccnc2)cc(Oc2ccccc2)c1=O | 6% | -0.76
30 | C=CCO[C@@H](C)C(=O)N1CCC(C#N)CC1 | -3% | 0.54
31 | Cc1cccc(N2C[C@H](C)N(C(=O)c3ccc4[nH]c(C)c(C)c4c3)CC2=O)c1 | -15% | 1.49
32 | Cc1ccc(S(=O)(=O)N2CCC3(CC2)N[C@@H](C(C)C)C(=O)N3CC2CC2)cc1 | -6% | 0.61
33 | Cc1cccc(CN2CCC[C@@]3(CCN(C(=O)CCc4ccncc4)C3)C2)c1 | 7% | -1.08
34 | COCCCN(CCC(=O)NCCc1ccccc1)C(=O)c1cc(C)oc1C | 2% | -0.18
35 | Cc1ccc(CNC(=O)N2CCC(C(C)O)C2)c(N2CCCC2)c1 (stereo unspecified) | -8% | 1.13
36 | COc1nc(NC(=O)c2cncc(Br)c2)n[nH]1 | 3% | -0.58
37 | Cc1nnc2n1CCN(C(=O)c1cc(C)n(C3CC3)c1C)C2 | 3% | -0.66
38 | Cc1cc(-c2cc(NC(=O)c3ccc(Br)cc3)n(-c3ccccc3)n2)c(C)n1-c1cccc(C(F)(F)F)c1 | 8% | -1.57
39 | CC(C)CCn1c(=O)c2sccc2n(CC(=O)NC2CCCC2)c1=O | -2% | 0.27
40 | O=c1[nH]c2c(c(=O)n1C1CCCCC1)CC=C2 | -58% | 6.83
41 | Cc1c(CN(C)CC2(C)COC2)oc2ccccc12 | 1% | -0.13
42 | COc1ccnc(CNC(=O)c2cc(CO)ccn2)c1 | 16% | -2.09

Row | SMILES | % Inhibition | Z score
43 | CCS(=O)(=O)Cc1nnc(-c2ccc(Cl)cc2Cl)o1 | -2% | 0.44
44 | CN(CCO)C[C@H]1COCCN1C(=O)C1CCC1 | -6% | 0.94
45 | CC(=O)N1CCN(C(=O)c2csc(NC(=O)c3cccc(Cl)c3)n2)CC1 | -10% | 1.67
46 | CCC(CC)N(Cc1ccc2c(c1)OCO2)C(=O)[C@H]1C[C@H]2C=C[C@@H]1C2 | 9% | -1.11
47 | Cc1cc([C@H](C)NCC(C)(C)C2(O)CCOCC2)cs1 | -1% | 0.15
48 | COc1ccc(CNC(=O)CN2CCc3c(ncn3C)C2)cc1OC | 2% | -0.22
49 | COCc1ccccc1C(=O)OCc1cn(C)nn1 | 24% | -2.66
50 | CCS(=O)(=O)Nc1cc(C)ccc1F | 30% | -3.84
51 | Cc1ccccc1-n1nc(C)c2[nH]c(-c3ccc(OCCO)cc3)nc21 | 0% | -0.06
52 | CCc1c(NC(=O)[C@@H]2CN(CC)C[C@H]2c2cn(C)cn2)cnn1C1CCCC1 | 1% | -0.19
53 | O[C@H]1Cc2ccccc2[C@H]1Nc1ncc(Br)cn1 | -31% | 3.67
54 | COc1ccc(C#N)cc1CN(Cc1ccncc1)C1CC1 | 2% | -0.24
55 | O=C(Cn1ncn2nc(-c3ccccc3)cc2c1=O)N1CCCCCC1 | -32% | 2.8
56 | CCCNC(=O)N1CCC2(CCC(=O)N(C)CC2)CC1 | -12% | 1.32
57 | Clc1cccc2c(-c3nnnn3-c3ccc4ccccc4c3)c[nH]c12 | -13% | 1.55
58 | COCCC1(CNc2nc3ccccc3[nH]2)CC1 | 0% | 0.02
59 | O=C(NC1CCN(c2cc(C3CC3)[nH]n2)CC1)C1CCC1 | -8% | 1.03
60 | CCN(c1ccccc1)S(=O)(=O)c1cc(-c2nnc(C)o2)co1 | -6% | 0.84
61 | Cc1nn(C)cc1C(=O)N1CC[C@H](N2CCCCC2)C1 | 6% | -1.18
62 | CNC(=O)c1n[nH]c2c1[C@@H](c1nc(-c3ccc(Cl)cc3)no1)CC(=O)N2 | -4% | 0.54
63 | CCc1ncnc(N[C@@H](C)c2nncn2CCOC)c1F | -8% | 1.64

Row | SMILES | % Inhibition | Z score
64 | CC[C@H](NC(=O)C1CCOCC1)c1ncccc1C | 5% | -0.92
65 | Cc1cc(NC(=O)[C@H](C)N2CCC(c3cn[nH]c3)CC2)no1 | -14% | 2.2
66 | Cc1[nH]c2ccc(NC(=O)c3ccccc3Cl)cc2c1[C@@H](c1ccccn1)N1CCCCC1 | 7% | -1.18
67 | CCc1ccc(-c2nccn2-c2ccc3[nH]nnc3c2)o1 | 6% | -0.74
68 | CCn1cc(NC(=O)NCc2ccoc2)cn1 | -9% | 1.73
69 | CC(=O)Nc1c(C)nn(-c2ccccc2)c1N1CCC(C(=O)NCCCN2CCCC[C@@H]2C)CC1 | -8% | 1.46
70 | Cc1nccn1-c1ncc(NC(=O)C(C)(C)C)cn1 | 3% | -0.41
71 | C=CCc1ccc(C(=O)N2CCC[C@]3(CCC(=O)N(C4CC4)C3)C2)cc1 | -8% | 1.62
72 | COC(=O)c1cc(C2CC2)nc2c1c(=O)n(Cc1ccccc1Cl)c(=O)n2C | 5% | -0.65
73 | CC[C@H]1CC[C@@H](C)N(C(=O)c2ccc(F)c(COC)c2)C1 | -9% | 1.25
74 | Cc1cc(C)c2c(N3C(=O)[C@H]4CCCC[C@H]4C3=O)n[nH]c2n1 | -5% | 0.6
75 | Cc1ccc(S(=O)(=O)[C@H]2C=c3c(=O)n(C)c(=O)n(C)c3=N2)cc1 | -4% | 0.52
76 | CCCc1nnsc1C(=O)NC(c1ccccn1)[C@H]1C[C@@H](O)C1 (stereo partly specified) | -4% | 0.53
77 | O=C(CCn1nnc2ccccc21)N[C@H]1CC[C@@H]2CCC[C@@H]21 | 21% | -2.6
78 | C[C@@H](C1CC1)N(C)C(=O)c1ccc(S(=O)(=O)N2CCCCCC2)cc1 | -12% | 1.6
79 | O=C1Nc2ccc(-c3ccc4c(c3)OCO4)cc2C(=O)N2CCN(C(=O)C3CCCC3)C[C@@H]12 | 8% | -1.19
80 | CS(=O)(=O)N1CCC[C@H](CN2CCCc3sccc3C2)C1 | -15% | 1.47
81 | COc1ccc(NC(=O)[C@@H](Nc2ccc(C(F)(F)F)cc2Cl)C(C)C)c(OC)c1 | -6% | 0.98
82 | CC(C)c1ccc(NC(=O)CC[C@@H](C)[C@H]2CC[C@H]3[C@@H]4[C@@H](O)C[C@@H]5C[C@H](O)CC[C@]5(C)[C@H]4CC[C@]23C)cc1 | -4% | 0.55
83 | CN(C)c1cccc(C(=O)N2CC[C@@]3(CCCN(CC4CC4)C3=O)C2)c1 | -15% | 3.03
